{
  "source": "PubChem BioAssay AID1347165",
  "about": "(National Center for Advancing Translational Sciences (NCATS), 2019)",
  "note": "About 5,700 (2.6%) of roughly 220,000 compounds were called active. The shares of active, inactive and inconclusive entries below differ from those in the screen. The call rests on the fitted dose curve; in most records, active means well fitted inhibition curve with a large enough effect; inconclusive means small, poorly fitted or top-dose-only effect; inactive means no such curve, though single readings can be large or run the other way. Potencies beside an inconclusive call are fits to weak or partial responses and may not hold up. Potency means the concentration at half of the fitted maximal effect; tags describe the fitted curve by direction and shape.",
  "data": [
    {"molecular_target": "Lysine-specific demethylase 5B (Homo sapiens) (UniProt Q9UGL1)", "sequence (Q9UGL1 whole entry, looked up)": "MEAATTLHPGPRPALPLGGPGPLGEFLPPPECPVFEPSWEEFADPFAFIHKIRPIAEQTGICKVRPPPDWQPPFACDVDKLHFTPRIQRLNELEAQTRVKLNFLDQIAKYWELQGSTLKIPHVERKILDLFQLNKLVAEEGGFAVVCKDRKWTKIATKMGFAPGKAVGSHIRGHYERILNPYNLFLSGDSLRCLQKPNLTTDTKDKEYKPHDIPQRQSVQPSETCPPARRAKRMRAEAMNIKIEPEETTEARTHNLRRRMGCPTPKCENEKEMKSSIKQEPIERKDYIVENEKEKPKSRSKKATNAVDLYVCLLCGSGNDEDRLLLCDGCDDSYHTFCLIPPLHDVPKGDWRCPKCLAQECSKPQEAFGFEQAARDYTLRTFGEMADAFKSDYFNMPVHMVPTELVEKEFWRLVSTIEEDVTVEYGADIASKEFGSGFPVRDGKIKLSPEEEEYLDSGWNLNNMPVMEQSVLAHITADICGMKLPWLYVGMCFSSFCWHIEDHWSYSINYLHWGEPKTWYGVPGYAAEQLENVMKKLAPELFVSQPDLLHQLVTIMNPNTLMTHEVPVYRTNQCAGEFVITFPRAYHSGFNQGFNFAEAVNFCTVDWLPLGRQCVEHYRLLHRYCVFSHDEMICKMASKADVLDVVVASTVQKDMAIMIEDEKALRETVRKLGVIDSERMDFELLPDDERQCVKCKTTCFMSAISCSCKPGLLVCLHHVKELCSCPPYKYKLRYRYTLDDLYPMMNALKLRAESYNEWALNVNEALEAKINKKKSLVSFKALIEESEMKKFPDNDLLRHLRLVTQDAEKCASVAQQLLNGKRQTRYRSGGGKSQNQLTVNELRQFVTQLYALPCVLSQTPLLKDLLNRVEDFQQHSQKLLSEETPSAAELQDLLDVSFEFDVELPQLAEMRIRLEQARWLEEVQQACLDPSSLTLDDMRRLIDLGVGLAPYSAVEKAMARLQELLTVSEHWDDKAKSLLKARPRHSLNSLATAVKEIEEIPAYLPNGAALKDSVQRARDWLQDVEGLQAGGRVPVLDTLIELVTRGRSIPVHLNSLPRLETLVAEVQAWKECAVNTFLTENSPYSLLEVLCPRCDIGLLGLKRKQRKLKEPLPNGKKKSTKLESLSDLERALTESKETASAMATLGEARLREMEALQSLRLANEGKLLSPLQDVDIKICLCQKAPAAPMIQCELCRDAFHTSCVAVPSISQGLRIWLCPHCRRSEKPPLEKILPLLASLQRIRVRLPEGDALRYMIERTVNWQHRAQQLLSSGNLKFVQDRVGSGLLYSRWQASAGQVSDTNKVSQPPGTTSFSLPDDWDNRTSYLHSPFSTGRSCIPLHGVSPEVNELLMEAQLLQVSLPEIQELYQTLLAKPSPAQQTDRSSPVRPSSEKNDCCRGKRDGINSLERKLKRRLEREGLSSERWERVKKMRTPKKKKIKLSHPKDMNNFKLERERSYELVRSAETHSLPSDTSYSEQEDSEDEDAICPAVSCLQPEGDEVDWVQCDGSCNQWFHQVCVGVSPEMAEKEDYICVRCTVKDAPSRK", "experiment": "Primary screen for KDM5B Histone Demethylases FDH-coupled qHTS; further: nearly all actives have a fitted effect of over 70% in size; on activity change, negative = inhibition: 0% is about no effect", "details": "FDH-coupled NADH fluorescence (FDH is formaldehyde dehydrogenase); activity change, negative = inhibition: at 57.7 µM (top of the series) unless noted", "text": "Assay Submitter (PI): Qin Yan, Ph.D. (Yale University) and Xiaodong Cheng, Ph.D. (MD Anderson) This project was funded as part of the NCI NEXT Program and Chemical Biology Consortium (CBC) The histone demethylases, KDM5A and KDM5B catalyze the demethylation of lysine 4 on histone H3 (H3K4me3/2). They are overexpressed in a variety of cancers and have been implicated in cancer cell growth, metastasis, drug resistance, and tumor growth. KDM5A is amplified and overexpressed in breast and gastric cancer; and is translocated in leukemia. While KDM5B is highly expressed in human mammary tumors and breast cancer cell lines, but not in normal adult breast tissue. Moreover, knockdown of KDM5B leads to upregulation of tumor suppressor genes, including BRCA1. The goal of this project is to employ qHTS to identify selective small molecule inhibitors of KDM5A/B demethylase activity to better understand the role of KDM5 in cancer and to develop novel therapies. We employed an FDH-coupled assay previously reported by Sakurai et al. to monitor in vitro KDM5 demethylase activity. Compounds showing dose response inhibition are re-acquired, validated, and tested for non-specific interference with the formaldehyde dehydrogenase (FDH) counterscreen. True inhibitors are validated using an AlphaLisa secondary screen, which employs an H3K4(me2-1)-specific antibody to monitor demethylation of a biotin-tagged H3K4(me3) peptide substrate. Inhibitors are profiled against KDM4A and KDM6A AlphaLisa counterscreens to determine level of demethylase specificity; and against the TruHits counterscreen to eliminate non-specific inhibitory activity on the AlphaLISA detection method. Selective inhibitors identified from the primary and secondary screening are tested in cells using immunofluorescence to monitor global H3K4 tri-methylation as a measure of KDM5A/B inhibition. Early Translation Branch (ETB) National Center for Advancing Translational Sciences (NCATS), Rockville, MD National Institute of Health (NIH), Bethesda, Maryland [1] Sakurai, M et al. A miniaturized screen for inhibitors of Jumonji histone demethylases. Mol Biosyst. 2010 Feb;6(2):357-64. doi: 10.1039/b912993f. Epub 2009 Oct 8.\nMaterials: 1536-well Black, solid bottom, medium binding assay plate is purchased from Greiner Bio-one. The enzymes (KDM5B) and substrate (H3K4me3/2) are provided by the principal investigators. The buffer for this assay is composed of 50mM HEPES at pH 7.5 with 0.01% Tween-20. FDH coupled Demethylase qHTS protocol: Three microliter enzyme mix (buffer + 200nM KDM5BDeltaAP final concentration) is dispensed into the assay plate using the BioRAPTR Flying Reagent Dispenser (FRD; […]). Compound (at various final concentration) and control solution is pin transferred to the assay plate using the Kalypsys 1536-pin tool apparatus. The assay plate is incubated for 10 min at room temperature followed by addition of 1uL substrate mix (buffer + 100uM ascorbic acid, 50uM ferrous ammonium sulfate, 12.5uM H3K4Me3, 25uM a-ketoglutarate, 0.25 mM NAD+, 0.25 U/mL formaldehyde dehydrogenase using the FRD yielding a total reaction volume of 4 uL. Initial fluorescence (Read1) is detected using the PerkinElmer ViewLux plate reader equipped with 340 nm excitation and 450 nm emission filters. The final fluorescence (Read2) signal is obtained after 30 min of room temperature incubation. Delta RFU is calculated (Read2 - Read1) and is used to generated dose response curves.", "values": [
      {"molecule": "Cc1ccc(NC(=O)CN(C)C(=O)c2ccc3c(c2)nnn3C2CCCC2)cc1", "Potency": "inactive"},
      {"molecule": "CC(C)C1NC(=O)N(Cc2cc(F)cc3cccnc23)C1=O", "note": "(centres undefined)", "Potency": "inconclusive: 2 µM [inhibitor, full curve, poor fit]"},
      {"molecule": "COCc1ccccc1NS(=O)(=O)c1cc(C(=O)O)cc2c1CCC2", "Potency": "inactive"},
      {"molecule": "COc1ncccc1-c1cc(C(=O)NCC2CCOCC2)c2c(c1)ncn2C", "Potency": "inconclusive: 31.6 µM [inhibitor, partial curve, poor fit]"},
      {"molecule": "Cc1csc2nc(-c3cccc(NS(C)(=O)=O)c3)cn12", "activity change, negative = inhibition": "inconclusive: -36.2% [inhibitor]"},
      {"molecule": "CC(C)CN1C(=O)CCc2cc(NC(=O)C3CCC3)ccc21", "Potency": "inconclusive: 12.6 µM [inhibitor, partial curve]"},
      {"molecule": "CC1CCN(S(=O)(=O)c2cc(C(=O)NCc3ccc(N(C)C)cc3)n(C)c2)CC1", "Potency": "inconclusive: 17.8 µM [inhibitor, single point]"},
      {"molecule": "CN(C)CCNC(=O)c1ccc2c(c1)C1(CCCN(CC3CC3)C1)CN2C", "note": "(centres undefined)", "Potency": "active: 35.5 µM"},
      {"molecule": "COc1ccccc1C(=O)NCc1ccc(-c2nc3ncccc3o2)cc1", "Potency": "inconclusive: 28.2 µM [inhibitor, single point]"},
      {"molecule": "CCC(C)(C(=O)NC1CCCC1)N(Cc1cccs1)C(=O)CNC(=O)c1ccccc1", "note": "(centres undefined)", "Potency": "inactive"},
      {"molecule": "CCOc1cc(/C=C2\\NC(=O)NC2=O)cc(Cl)c1OCc1cccc(F)c1", "Potency": "inactive"},
      {"molecule": "COc1cc(F)ccc1-c1cc(C(=O)NCc2c(C)cc(C)[nH]c2=O)c2c(c1)N(C(C)C)CCO2", "Potency": "active: 31.6 µM"},
      {"molecule": "Cc1ccc(NS(=O)(=O)c2ccc3c(c2)c(=O)n(CC(=O)N2CCCCCC2)c(=O)n3C)cc1C", "Potency": "inactive"},
      {"molecule": "NCCC(=O)N1CCC2(CC1)CN(C(=O)c1ccc(Cl)cc1)CCO2", "Potency": "inconclusive: 79.4 µM [inhibitor, single point]"},
      {"molecule": "C=CCNc1oc(-c2ccc(COc3ccc(C)cc3)o2)nc1C#N", "Potency": "inconclusive: 39.8 µM [inhibitor, single point]"},
      {"molecule": "Cc1cn2nc(C(=O)Nc3ccc(F)c(F)c3)cc2c(N(C)Cc2ccccc2)n1", "Potency": "active: 31.6 µM"},
      {"molecule": "CC(C(=O)Nc1cccc2ncccc12)N1CCCCC1", "note": "(centres undefined)", "Potency": "inactive"},
      {"molecule": "CC(C)NC(=O)N1CCC(O)(c2csc(CN(C)Cc3cccnc3)n2)CC1", "Potency": "inactive"},
      {"molecule": "COc1ccccc1OC1(C(=O)O)CCN(Cc2nccn2C)CC1", "Potency": "inconclusive: 39.8 µM [inhibitor, partial curve, poor fit]"},
      {"molecule": "CCc1ccc(CNC(=O)c2cnc(N3CCCCC3)c3ccccc23)cc1", "Potency": "inconclusive: 35.5 µM [inhibitor, partial curve, poor fit]"},
      {"molecule": "Cc1ccccc1-c1nc(C#N)c(NCCCN2CCOCC2)o1", "Potency": "inconclusive: 25.1 µM [inhibitor, partial curve, poor fit]"},
      {"molecule": "Cn1nc(C2CCNC2)c2c(C(=O)N3CCC(F)CC3)cc(C3CC3)nc21", "note": "(centres undefined)", "Potency": "active: 79.4 µM"},
      {"molecule": "O=C(NCc1ccnc2[nH]ccc12)c1cc(F)ccc1Br", "Potency": "inconclusive: 22.4 µM [inhibitor, partial curve, poor fit]"},
      {"molecule": "CCOc1ccc2ccccc2c1/C=N/NC(=O)c1c(C)cc(C)[nH]c1=O", "Potency": "inconclusive: 25.1 µM [inhibitor, single point]"},
      {"molecule": "CN(CC(=O)NCc1ccccc1Cl)S(=O)(=O)c1ccc2c(c1)c(=O)n(C)c(=O)n2C", "activity change, negative = inhibition": "inconclusive: -31.3% [inhibitor]"},
      {"molecule": "Cc1cc(C(=O)N2CC=C(c3ccccc3)CC2)c(C)s1", "Potency": "inconclusive: 8.91 µM [inhibitor, partial curve, poor fit]"},
      {"molecule": "O=Cc1ccc(N2CCOCC2)cc1", "Potency": "inconclusive: 39.8 µM [inhibitor, single point]"},
      {"molecule": "COc1ccc(COCC(O)CN2CCCC(C(F)(F)F)C2)cc1", "note": "(centres undefined)", "Potency": "inconclusive: 25.1 µM [inhibitor, single point]"},
      {"molecule": "Cc1cc(Nc2cccc(F)c2)nc(-c2ccccc2)n1", "Potency": "inconclusive: 35.5 µM [inhibitor, single point]"},
      {"molecule": "CCN(Cc1nccn1C)C(=O)c1ccc(NC[C@H]2C[C@H]3C=C[C@H]2C32CC2)nc1", "Potency": "inconclusive: 17.8 µM [inhibitor, partial curve, poor fit]"},
      {"molecule": "COc1ccc(-n2cc(CN3CCC(O)CC3)c(-c3cccc(F)c3)n2)cc1", "Potency": "active: 28.2 µM"},
      {"molecule": "CC(=O)c1c(C)nc(Nc2nc(C)c3cc(C)ccc3n2)nc1C", "Potency": "inconclusive: 35.5 µM [inhibitor, single point]"},
      {"molecule": "COCc1nc2nc(-c3ccccc3)c(-c3cccc(CO)c3)cc2n1C", "Potency": "inconclusive: 39.8 µM [inhibitor, partial curve, poor fit]"},
      {"molecule": "COc1cc(NC(=O)Nc2ccc3nc(N4CCOCC4)cc(C)c3c2)cc(OC)c1OC", "activity change, negative = inhibition": "inconclusive: -30.1% [inhibitor]"},
      {"molecule": "O=C(/C=C1\\C(=O)Nc2ccccc21)/C=C1\\C(=O)Nc2ccccc21", "Potency": "inconclusive: 3.16 µM [inhibitor, full curve, poor fit]"},
      {"molecule": "CC(NC(=O)C1CCCO1)C(=O)N1CCN(c2ccccn2)CC1", "note": "(centres undefined)", "Potency": "active: 25.1 µM"},
      {"molecule": "COc1ccc(CNC(=O)c2ccc3c(c2)N(Cc2ccccc2)C(=O)c2ccccc2S3=O)cc1", "note": "(centres undefined)", "Potency": "inactive"},
      {"molecule": "N#Cc1cc(-n2ccnc2-c2cc3n(n2)CCCNC3)ccc1N1CCCC1", "Potency": "active: 28.2 µM"},
      {"molecule": "COCCn1c(N(C)Cc2ccccc2)nc2c1c(=O)n(C)c(=O)n2C", "Potency": "inactive"},
      {"molecule": "CCOc1ccc(-c2cc3c(=O)n(Cc4nc(-c5ccc(OC)cc5OC)oc4C)ccn3n2)cc1Cl", "Potency": "inconclusive: 20 µM [inhibitor, partial curve, poor fit]"},
      {"molecule": "COc1cccc(Oc2nc3c(c(=O)n(Cc4ccccc4Cl)c(=O)n3C)n2C)c1", "Potency": "inconclusive: 22.4 µM [inhibitor, single point]"},
      {"molecule": "CC(C)c1ccc(NC2CCCN(C(=O)c3cccnc3)C2)cc1", "note": "(centres undefined)", "Potency": "inconclusive: 22.4 µM [inhibitor, single point]"},
      {"molecule": "Cc1cccc(O[C@H]2COCCN(c3nc4ccccc4s3)C2)n1", "Potency": "inconclusive: 31.6 µM [inhibitor, single point]"},
      {"molecule": "O=c1[nH]c2ccc(NCc3ccc(-c4ccccc4F)o3)cc2[nH]1", "Potency": "inconclusive: 44.7 µM [inhibitor, single point]"}
    ]}
  ]
}
